SMILES strings stand for the structures. Out of some 310,000 compounds screened, about 14,000 (4.5%) showed an effect of 50% or more. The effect is printed as a negative number. The list shows a part of the results.
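Also: peak tail current of the secondary pulse compared with the same well before compound.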

Chain of human ether-à-go-go-related gene (hERG) potassium channel (Q12809 whole entry, looked up): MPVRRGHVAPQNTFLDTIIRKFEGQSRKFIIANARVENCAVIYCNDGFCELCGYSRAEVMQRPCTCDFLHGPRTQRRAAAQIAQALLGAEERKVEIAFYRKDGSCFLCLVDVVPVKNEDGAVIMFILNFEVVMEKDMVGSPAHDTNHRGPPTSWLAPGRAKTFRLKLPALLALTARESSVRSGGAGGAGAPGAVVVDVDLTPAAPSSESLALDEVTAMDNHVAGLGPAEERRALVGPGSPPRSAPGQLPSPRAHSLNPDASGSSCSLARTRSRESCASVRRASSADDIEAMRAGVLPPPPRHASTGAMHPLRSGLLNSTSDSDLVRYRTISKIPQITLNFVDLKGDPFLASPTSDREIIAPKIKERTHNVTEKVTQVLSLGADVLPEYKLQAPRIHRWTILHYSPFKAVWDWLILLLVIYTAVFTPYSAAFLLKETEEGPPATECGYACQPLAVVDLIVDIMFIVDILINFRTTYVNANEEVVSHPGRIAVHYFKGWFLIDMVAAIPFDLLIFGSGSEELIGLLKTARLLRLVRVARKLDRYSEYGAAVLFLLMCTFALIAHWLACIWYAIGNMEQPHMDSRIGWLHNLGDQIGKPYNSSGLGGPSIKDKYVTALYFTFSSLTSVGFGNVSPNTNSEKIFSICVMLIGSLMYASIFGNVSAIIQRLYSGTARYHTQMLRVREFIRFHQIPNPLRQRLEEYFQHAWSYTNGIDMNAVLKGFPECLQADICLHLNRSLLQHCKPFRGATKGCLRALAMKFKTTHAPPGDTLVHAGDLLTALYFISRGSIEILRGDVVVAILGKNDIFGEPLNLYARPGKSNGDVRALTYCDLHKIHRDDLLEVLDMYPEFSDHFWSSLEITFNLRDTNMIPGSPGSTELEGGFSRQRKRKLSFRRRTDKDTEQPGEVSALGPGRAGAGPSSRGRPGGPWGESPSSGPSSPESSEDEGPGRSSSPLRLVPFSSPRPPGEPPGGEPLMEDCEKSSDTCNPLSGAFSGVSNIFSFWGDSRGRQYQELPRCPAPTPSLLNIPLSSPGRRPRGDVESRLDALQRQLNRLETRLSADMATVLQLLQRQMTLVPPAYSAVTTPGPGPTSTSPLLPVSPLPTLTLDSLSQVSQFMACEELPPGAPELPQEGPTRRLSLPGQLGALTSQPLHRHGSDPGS

The experiment has as its target human ether-à-go-go-related gene (hERG) potassium channel (human, UniProt Q12809). The experiment in a line: primary screen, population patch clamp on CHO cells stably expressing hERG.
As to `O=C(/C=C/c1ccccc1)NCC(=O)N/N=C/c1ccccc1[N+](=O)[O-]`, the “hERG current change (%, negative = inhibition) at 10uM” value was -14.9%.
Consider `Cc1cccc(/C=N/NC(=O)Cn2nc(C)cc2C)n1`, for which the “hERG current change (%, negative = inhibition) at 10uM” value was 15.5%.
The same measure for `Cc1nn(Cc2ccccc2)c(C)c1C(=O)N1CCN(S(=O)(=O)/C=C/c2ccccc2)CC1`: -24.8%; for `COc1cccc(-c2nnc3n2N=C(c2cccc(Br)c2)CS3)c1`: 6.32%; for `Cl.Oc1ccc(C2=CCNCC2)cc1O`: 10.1%.
Consider `CCN(CCCNC(=O)CCn1c(=O)[nH]c2ccccc2c1=O)c1ccccc1`, for which the “hERG current change (%, negative = inhibition) at 10uM” value is 0.927%.
As for `CSCC[C@H](Nc1ncnc2sc(C)c(C)c12)C(=O)O`, the figure is 7.25%.
As for `CCn1cc(CN2CCCC(CO)(Cc3cccc(Cl)c3)C2)cn1` (stereo not shown), the figure is -10.8%.
As for `CCOc1ccc(NC(=O)Nc2cc(C(=O)O)ccc2N2CC3CC(C2)c2cccc(=O)n2C3)cc1` (stereo not shown), the “hERG current change (%, negative = inhibition) at 10uM” value was 12.4%.
With `COC(=O)c1[nH]c2c(c1C)C(=O)CC(c1ccccc1)C2` (stereo not shown), the “hERG current change (%, negative = inhibition) at 10uM” value amounted to 4.41%.
On to `Cn1cc([N+](=O)[O-])c(C(=O)Nc2cnn(Cc3ccc(F)cc3)c2)n1`, for which the “hERG current change (%, negative = inhibition) at 10uM” value is reported as 2.14%.
As to `Cn1nnnc1SCC(=O)NCc1cccs1`, the “hERG current change (%, negative = inhibition) at 10uM” value came to 17.5%.
As for `CCNC(=S)N(Cc1ccc2c(c1)OCO2)C1CC(=O)N(c2ccc(F)cc2)C1=O` (stereo not shown), the figure is -14.4%; as for `COc1ccc(C2=CC(=O)OC3(CCCCC3)O2)cc1`, -32.3%; as for `O=C(CC12CC3CC(CC(C3)C1)C2)NCc1ccncc1`, -10.1%.
`COc1ccc(CNC(=O)c2cc(-c3ccco3)on2)cc1`: the “hERG current change (%, negative = inhibition) at 10uM” value is given as 4.79%.
With `O=C(CCl)NN=C(c1ccccc1)c1ccccc1`, the “hERG current change (%, negative = inhibition) at 10uM” value stood at 0.333%.
Regarding `Cc1ccc2cc3cc(C(=O)N4CCCCC4C)oc3nc2c1` (stereo not shown), the “hERG current change (%, negative = inhibition) at 10uM” value is given as -12.1%.
In the case of `O=C(CNC(=O)N1CC(=O)Nc2ccccc21)NCc1cccc(Cl)c1`, the “hERG current change (%, negative = inhibition) at 10uM” value amounted to 12.8%.
For the molecule `O=C(c1ccc(Cl)cc1)N1CCN(c2cc(=O)[nH]nc2-c2ccccc2)CC1`, the “hERG current change (%, negative = inhibition) at 10uM” value is given as -58.3%.
On to `CCC(=O)Nc1ccc(C(=O)COC(=O)c2nc3nccc(C)n3n2)cc1`, for which the “hERG current change (%, negative = inhibition) at 10uM” value worked out at 2.6%.
Regarding `O=C(OCC(=O)c1ccc(Cl)s1)c1cnccn1`, the “hERG current change (%, negative = inhibition) at 10uM” value is 7.24%.
With `N#CCSc1nc2ccccc2c(=O)n1C1CCCCC1`, the “hERG current change (%, negative = inhibition) at 10uM” value was -2.73%.
The same measure for `Cc1sc2nc(-c3cccnc3)[nH]c(=O)c2c1-c1ccccc1`: -4.06%.
On to `CCc1cccc(CC)c1NC(=O)COC(=O)c1ccccc1-c1nc2ccccc2s1`, for which the “hERG current change (%, negative = inhibition) at 10uM” value is given as 5.72%.

The values above are taken from paper PMC4336329 (PLoS ONE, 2015).
